The other results are listed elsewhere or left out. The data describe in vitro nicking of single-stranded DNA by Rep domains (1 h at 37 °C, 3 µM enzyme); the outer parts of the 90-letter strands are left off. The score is log2 (uncut reads / reads without enzyme); more negative means more cut, near 0 not cut, and no call is made. Reads are scaled to the total, so uncut sequences can rise above 0 when many others are cut.

For the test, the system named is T1, Rep nickase domain of tomato golden mosaic virus.
T1 sequence (residues 1-124, tag not shown): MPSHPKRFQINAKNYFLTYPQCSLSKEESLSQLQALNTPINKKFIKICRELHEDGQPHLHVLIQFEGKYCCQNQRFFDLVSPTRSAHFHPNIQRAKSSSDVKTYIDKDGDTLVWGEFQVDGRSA
The test is described as follows: uncleaved DNA left, log2 of reads against the no-enzyme library (log2 ratio); higher = less cleavage (more negative = more Rep cleavage of the k-mer); sequences stand for … in CTCGTCCG…ACCGGAGA
As to the method:
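A pool of 90-nt single-stranded DNAs with seven random bases just before the constant AC of the nick site (name = the seven bases) was cut by 3 µM recombinant His6-SUMO-tagged Rep nickase domain (300 nM DNA, 50 mM HEPES pH 8.0, 50 mM NaCl, 1 mM MnCl2, 1 h, 37 °C, three replicates). Uncut DNA was amplified and sequenced.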
Consider CCAAGCG, for which the “uncleaved DNA left (log2)” value is -0.197.

In the case of AAGTATT, the “uncleaved DNA left (log2)” value was -1.24.

Take TCTGGAC: the “uncleaved DNA left (log2)” value was -0.00762.

For CGGGGTA, the “uncleaved DNA left (log2)” value was found to be 0.106.

Consider CCCAGTC, for which the “uncleaved DNA left (log2)” value is -0.0614.

Consider TCGCTAG, for which the “uncleaved DNA left (log2)” value was -0.0341.

Regarding CGATACT, the “uncleaved DNA left (log2)” value was -0.145.

On to ATATGGT, for which the “uncleaved DNA left (log2)” value was found to be 0.0983.

As for AGTAAAA, the “uncleaved DNA left (log2)” value is 0.141.

Take ATCTAGT: the “uncleaved DNA left (log2)” value was found to be 0.00814.

On to CTCATAA, for which the “uncleaved DNA left (log2)” value worked out at 0.106.

Take CCAAACT: the “uncleaved DNA left (log2)” value is -0.132.

In the case of GGTCATA, the “uncleaved DNA left (log2)” value was -0.00369.

For ATTATCT, the “uncleaved DNA left (log2)” value stood at 0.0327.

For GGGATAG, the “uncleaved DNA left (log2)” value amounted to 0.0762.

Take ACTACGT: the “uncleaved DNA left (log2)” value was 0.0734.

As to ATTGCGT, the “uncleaved DNA left (log2)” value is -0.151.

Regarding GAGCCCG, the “uncleaved DNA left (log2)” value is -0.097.

For GCCTATC, the “uncleaved DNA left (log2)” value was -0.177.

In the case of AAACGAG, the “uncleaved DNA left (log2)” value is -0.0571.

As for TTTTTAA, the “uncleaved DNA left (log2)” value turned out to be 0.138.

Turning to GGTAGAA, the “uncleaved DNA left (log2)” value is -0.00457.

As to TCGCCCC, the “uncleaved DNA left (log2)” value is -0.297.

Consider TCTTGCA, for which the “uncleaved DNA left (log2)” value is -0.191.

Regarding ATCAAAT, the “uncleaved DNA left (log2)” value turned out to be 0.0257.

For TCTTTTC, the “uncleaved DNA left (log2)” value is -0.209.

CATTAAT: the “uncleaved DNA left (log2)” value is -0.646.

Regarding TGTTTGT, the “uncleaved DNA left (log2)” value is -0.0306.

Regarding ACCAAGC, the “uncleaved DNA left (log2)” value was -0.0144.

As for TCGATCC, the “uncleaved DNA left (log2)” value was -0.085.

ACGTCTT: the “uncleaved DNA left (log2)” value was -0.0352.

For the sequence GCACGGA, the “uncleaved DNA left (log2)” value is -0.109.

Regarding TCGGCGG, the “uncleaved DNA left (log2)” value came to 0.177.

Regarding TTAGGCC, the “uncleaved DNA left (log2)” value is -0.0545.

Consider TTCTCCT, for which the “uncleaved DNA left (log2)” value is -0.29.

On to CCAGGGT, for which the “uncleaved DNA left (log2)” value amounted to 0.0602.

CTCCAGT: the “uncleaved DNA left (log2)” value is -0.0951.

For the sequence CGTAAAG, the “uncleaved DNA left (log2)” value is -0.123.

With AAGTGCG, the “uncleaved DNA left (log2)” value was -0.00238.

Consider TTACTTT, for which the “uncleaved DNA left (log2)” value was determined as 0.0625.

Source of the values: the supplement of paper PMC7826260.
